PubChem BioAssay (Tox21)
Several values for one entry are separate records, joined by “and”; a condition that tells them apart may be missing. Identical values can stand only once. The inconclusive results got no clear call from the source; some entries with a clear call stand among them for comparison. For some of these results: Potencies beside an inconclusive call are fits to weak or partial responses and may not hold up. Activity calls are given as the source filed them. Unless noted, calls come from the whole dose curve; as a rule, active = well fitted cell-killing curve with a large enough effect in the repeat runs; inconclusive = weak or mixed curves; inactive = no such curve, though single readings can be large or run the other way.
% is set by controls: 0 for no effect and ±100 for the full control effect; potency is the fitted concentration of half-maximal effect; tags give direction and shape of the fitted curve or compound fluorescence and quenching.

System: not listed separately
Assay: qHTS assay to identify small molecule antagonists of the peroxisome proliferator-activated receptor delta (PPARd) signaling pathway - cell viability counter screen (AID 743213); note: nearly all actives have a fitted effect of over 50% in size
Details: PPARd-bla HEK293H viability, CellTiter-Glo luminescence, 17 h; viability change, negative = cytotoxic: at 62 µM (top of the series) unless noted
Outline: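 PPARd-bla HEK293H cells (3000/well) got compound plus 300 nM L165041 agonist for 17 h at 37 C. Viability in the same wells came from CellTiter-Glo luminescence after 30 min at room temperature.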
For `COC(=O)/C=C\C(=O)OC`, the Potency was “inactive”.
With `O=C(O)[C@H](O)c1ccccc1` the Potency was inconclusive: 6.68 µM [cytotoxic, full curve, poor fit].
With `CCN(CC)C(=O)c1ccc(O)c(OC)c1` the Potency was “inactive”.
In the case of `CCC1(C)NC(=O)NC1=O` (stereo unspecified), the Potency is reported as “inactive”.
For `CCCCC(=O)O[C@]1(C(=O)CO)CC[C@H]2[C@@H]3CCC4=CC(=O)CC[C@]4(C)[C@H]3[C@@H](O)C[C@@]21C`, the Potency was “inactive”.
For `CN(C)CCCN`, the Potency was inconclusive: 0.495 µM [cytotoxic, single point].
For `Cc1cc2nc(N)sc2cc1C`, the Potency was inconclusive: 39.2 µM [cytotoxic, partial curve, poor fit].
In the case of `CC(N)C(=O)OC(C)(C)Cc1ccc(Cl)cc1` (stereo unspecified), the Potency is reported as inconclusive: 11.9 µM [cytotoxic, single point].

Molecular target: Peroxisome proliferator-activated receptor delta (Homo sapiens) (UniProt Q03181)
Chain of UniProt Q03181 (Q03181 whole entry, looked up): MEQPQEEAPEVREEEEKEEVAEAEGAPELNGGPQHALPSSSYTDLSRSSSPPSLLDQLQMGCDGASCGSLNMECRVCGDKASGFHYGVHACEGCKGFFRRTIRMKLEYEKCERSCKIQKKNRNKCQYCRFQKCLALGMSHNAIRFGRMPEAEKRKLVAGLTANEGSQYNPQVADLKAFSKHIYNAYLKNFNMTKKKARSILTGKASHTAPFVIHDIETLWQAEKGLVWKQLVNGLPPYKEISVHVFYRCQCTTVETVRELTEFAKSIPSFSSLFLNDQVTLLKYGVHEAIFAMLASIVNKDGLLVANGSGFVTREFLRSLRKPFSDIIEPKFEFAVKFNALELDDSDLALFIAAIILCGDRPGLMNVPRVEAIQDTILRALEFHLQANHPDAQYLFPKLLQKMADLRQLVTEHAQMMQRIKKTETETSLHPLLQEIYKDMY
Assay: qHTS assay to identify small molecule antagonists of the peroxisome proliferator-activated receptor delta (PPARd) signaling pathway (AID 743215; active = well fitted inhibition curve with a large enough effect in the signal ratio in the repeat runs, not every such curve was filed as active; inconclusive = weak or mixed curves, or effect the other way; inactive = no such curve, though single readings can be large or run the other way; the % refers to the signal ratio;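 note: cells stimulated with agonist L165041 at 300 nM final during compound exposure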)
Details: HEK293H PPARd-UAS-bla, beta-lactamase FRET ratio, antagonist, 17 h; ratio activity, negative = inhibition: at 62 µM (top of the series) unless noted
Outline: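 HEK293H UAS-bla, PPARd; agonist L165041 300 nM final with cpd in DMSO; 37 C 17 h; FRET substrate, RT 2 h; fluorescence intensity.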
In the case of `CCN(CC)CC(=O)OCC(=O)[C@@]1(O)CC[C@H]2[C@@H]3CCC4=CC(=O)CC[C@]4(C)[C@H]3[C@@H](O)C[C@@]21C`, the ratio activity, negative = inhibition is reported as inconclusive: 25.8%.
For `O=C(O)[C@H](O)c1ccccc1`, the Potency was “inactive”.
For `CC(C)(C)c1ccc(OCC2CO2)cc1` (stereo unspecified), the ratio activity, negative = inhibition was inconclusive: -2.39% [at 80.4 µM].
With `O=c1[nH]c(=O)c2cn[nH]c2[nH]1` the Potency was “inactive”.
With `Cc1cccc(NC(=S)N(C)C)c1` the Potency was “inactive”.
For `CC1=CC(C)C(C=O)CC1` (stereo unspecified), the ratio activity, negative = inhibition was inconclusive: 5.47%.
With `C=C1CC[C@H]2C[C@@H]1C2(C)C` the ratio activity, negative = inhibition was inconclusive: 13.4%.
In the case of `CC(=O)[C@H]1CC[C@H]2[C@@H]3C[C@H](C)C4=CC(=O)CC[C@]4(C)[C@H]3[C@@H](O)C[C@]12C`, the ratio activity, negative = inhibition is reported as inconclusive: 13.1%.
With `NC1CCN(c2cccc(Cl)n2)CC1` the ratio activity, negative = inhibition was inconclusive: 1.91% [fluorescent].
With `O=S(=O)(O)CC(O)CCl` (stereo unspecified) the ratio activity, negative = inhibition was inconclusive: 4.62%.
In the case of `Cc1ccc(S(=O)(=O)N=C=O)cc1`, the Potency is reported as “inactive and inconclusive: 54.9 µM [fluorescent]”.
In the case of `Cc1nc2ccc(CN(C)c3ccc(C(=O)N[C@@H](CCC(=O)O)C(=O)O)s3)cc2c(=O)[nH]1`, the Potency is reported as “inactive”.
For `CCCCCCCCCCCBr`, the Potency was “inactive”.
With `CC(C)(N)C#N` the Potency was “inactive”.
In the case of `COCC(O)CO` (stereo unspecified), the Potency is reported as “inactive”.
With `Nc1ccc(C(=O)Oc2ccccc2)c(O)c1` the ratio activity, negative = inhibition was inconclusive: 4.98%.
For `O=C(/C=C/c1ccccc1)NCCO`, the Potency was “inactive”.
With `Cc1cc(NC(=O)C(=O)O)cc(C)c1Oc1ccc(O)c2c1CCC2` the ratio activity, negative = inhibition was inconclusive: 10.1%.
In the case of `O=C(O)c1cc(=O)c2c(OCC(O)COc3cccc4oc(C(=O)O)cc(=O)c34)cccc2o1`, the Potency is reported as “inactive”.
In the case of `CC(C)C[C@H](NC(=O)OCC1c2ccccc2-c2ccccc21)C(=O)O`, the ratio activity, negative = inhibition is reported as inconclusive: 15.5%.
In the case of `CC(=O)C(C)C`, the ratio activity, negative = inhibition is reported as inconclusive: 10.4% [at 80.4 µM].
With `C[C@H]1C[C@@H]2[C@H]([C@@H](O)C[C@@]3(C)[C@H]2CC[C@]3(O)C(=O)CO)[C@@]2(C)C=CC(=O)C=C12` the Potency was “inactive”.
For `C[C@]12CCC(=O)C=C1CC[C@@H]1[C@@H]2CC[C@@]2(C)[C@H]1CC[C@]2(O)C(=O)CO`, the Potency was “inactive”.
